The IC50 comes from the fitted curve, where viability falls to half of the control; a fit beyond the top or the lowest dose is shown as a bound at that dose. For AUC the same curve is integrated over the 256-fold range of doses and scaled to a fraction; values near 1 show little effect. Where the top dose is marked as inferred, it was calculated from the reported fits. For part of these data: Drugs with an entry number were screened twice under separate entries, and the two screens often disagree. Where only a bound is given, the exact number is not on record here.

Assay in all cases: Viability of human cancer cell lines after 72 h of drug (GDSC screen)
Compound in experiment [1]: COc1cc(C(=O)NC2CCN(C)CC2)ccc1Nc1ncc2c(n1)N(C1CCCC1)CCC(=O)N2C(C)C [XMD11-85h]
Particulars: top dose 10 µM; top dose inferred. How it is done: (§1)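 Human cancer cell lines in 384-well plates, medium with 10% serum, drug for 72 h over a 256-fold dose range (nine 2-fold or five 4-fold steps up to the top dose). Adherent lines were fixed and stained with the nucleic acid dye Syto60, suspension lines read with resazurin; signal relative to control wells, capped at 0 and 100%. One two-parameter sigmoid per drug and line, fitted in a mixed model over all curves with the slope shared within a line.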

Compound in experiment [2]: Cc1cc([C@@H](C)Nc2ccccc2C(=O)O)c2nc(N3CCOCC3)cc(=O)n2c1 [AZD6482]
How it is done:
as §1

Compound in experiment [3]: Cn1ncnc1[C@H]1c2n[nH]c(=O)c3cc(F)cc(c23)N[C@@H]1c1ccc(F)cc1 [BMN-673]
Particulars: top dose 10 µM; top dose inferred. On the procedure:
as §1

Compound in experiment [4]: NS(=O)(=O)OC[C@@H]1C[C@@H](n2ccc3c(N[C@H]4CCc5ccccc54)ncnc32)C[C@@H]1O [MLN4924]
The note with it: top dose 1 µM; top dose inferred. How it is done: as §1

The mark [5] stands for this setting: top dose 5 µM, screen: GDSC drug entry 1066, top dose inferred.
The mark [6] stands for this setting: top dose 5.12 µM, screen: GDSC drug entry 156.

As to LAN-6 (neuroblastoma, adherent), the AUC was determined as 0.955 in experiment [1]; 0.947 in experiment [2] (setting [5]); 0.969 in experiment [2] (setting [6]); 0.91 in experiment [3]; 0.971 in experiment [4]. Moreover, the IC50 was over 10 µM in experiment [1]; over 5 µM in experiment [2] (setting [5]); over 5.12 µM in experiment [2] (setting [6]); over 10 µM in experiment [3]; over 1000 nM in experiment [4].

As to LB373-MEL-D (melanoma, adherent), the AUC in experiment [1] was 0.982; in experiment [2] (setting [5]), 0.973; in experiment [3], 0.961; in experiment [4], 0.959. In addition, the IC50 is over 10 µM in experiment [1], over 5 µM in experiment [2] (setting [5]), over 10 µM in experiment [3] and over 1000 nM in experiment [4].

In the case of LB2241-RCC (kidney, adherent), the AUC in experiment [1] is 0.922; in experiment [2] (setting [5]) it was 0.685; in experiment [2] (setting [6]) it was 0.905; in experiment [3], 0.649; in experiment [4] it was 0.68. For the same cell line, the IC50 in experiment [1] was over 10 µM; in experiment [2] (setting [5]), 1.11 µM; in experiment [2] (setting [6]), over 5.12 µM; in experiment [3] it was 1.71 µM; in experiment [4], 212 nM.

For LB2518-MEL (melanoma, adherent), the AUC was 0.979 in experiment [1]; 0.981 in experiment [2] (setting [5]); 0.962 in experiment [2] (setting [6]); 0.802 in experiment [3]; 0.918 in experiment [4]. Moreover, the IC50 is over 10 µM in experiment [1]; over 5 µM in experiment [2] (setting [5]); over 5.12 µM in experiment [2] (setting [6]); 5.22 µM in experiment [3]; over 1000 nM in experiment [4].

On to “LK-2 (lung squamous cell carcinoma, adherent)”, for which the AUC came out at 0.97 in experiment [1]; 0.969 in experiment [2] (setting [5]); 0.988 in experiment [2] (setting [6]); 0.561 in experiment [3]; 0.712 in experiment [4]. Also, the IC50 in experiment [1] was over 10 µM; in experiment [2] (setting [5]), over 5 µM; in experiment [2] (setting [6]) it was over 5.12 µM; in experiment [3], 0.91 µM; in experiment [4], 238 nM.

In the case of “LOU-NH91 (lung squamous cell carcinoma, adherent)”, the AUC in experiment [1] came to 0.972; in experiment [2] (setting [5]) it was 0.963; in experiment [2] (setting [6]), 0.914; in experiment [3], 0.917; in experiment [4], 0.806. Also, the IC50 in experiment [1] was over 10 µM; in experiment [2] (setting [5]), over 5 µM; in experiment [2] (setting [6]) it was over 5.12 µM; in experiment [3] it was over 10 µM; in experiment [4], 563 nM.

Turning to LOXIMVI (melanoma, semi-adherent), the AUC stood at 0.919 in experiment [1], 0.958 in experiment [2] (setting [6]), 0.554 in experiment [3] and 0.642 in experiment [4]. For the same cell line, the IC50 in experiment [1] is over 10 µM; in experiment [2] (setting [6]) it was over 5.12 µM; in experiment [3] it was 0.863 µM; in experiment [4], 147 nM.

Consider LP-1 (myeloma, suspension), for which the AUC is 0.993 in experiment [1]; 0.99 in experiment [2] (setting [5]); 0.949 in experiment [2] (setting [6]); 0.993 in experiment [3]; 0.973 in experiment [4]. Also, the IC50 is over 10 µM in experiment [1]; over 5 µM in experiment [2] (setting [5]); over 5.12 µM in experiment [2] (setting [6]); over 10 µM in experiment [3]; over 1000 nM in experiment [4].

On to LS-123 (large intestine, adherent), for which the AUC in experiment [1] stood at 0.951; in experiment [2] (setting [5]), 0.908; in experiment [2] (setting [6]), 0.979; in experiment [3], 0.952; in experiment [4], 0.953. The IC50 was over 10 µM in experiment [1]; over 5 µM in experiment [2] (setting [5]); over 5.12 µM in experiment [2] (setting [6]); over 10 µM in experiment [3]; over 1000 nM in experiment [4].

For the cell line LS-180 (large intestine, adherent), the AUC in experiment [1] is 0.976; in experiment [2] (setting [5]), 0.985; in experiment [2] (setting [6]), 0.769; in experiment [3] it was 0.865; in experiment [4] it was 0.846. Besides, the IC50 in experiment [1] is over 10 µM; in experiment [2] (setting [5]), over 5 µM; in experiment [2] (setting [6]), 2.21 µM; in experiment [3], over 10 µM; in experiment [4], 886 nM.

Regarding LS-513 (large intestine, adherent), the AUC in experiment [1] was 0.986; in experiment [2] (setting [5]), 0.977; in experiment [2] (setting [6]), 0.985; in experiment [3] it was 0.975; in experiment [4], 0.939. Further, the IC50 in experiment [1] is over 10 µM; in experiment [2] (setting [5]), over 5 µM; in experiment [2] (setting [6]), over 5.12 µM; in experiment [3] it was over 10 µM; in experiment [4], over 1000 nM.

As to LS-1034 (large intestine, adherent), the AUC in experiment [1] came out at 0.968; in experiment [2] (setting [5]), 0.986; in experiment [2] (setting [6]), 0.985; in experiment [3], 0.945; in experiment [4] it was 0.985. Further, the IC50 is over 10 µM in experiment [1]; over 5 µM in experiment [2] (setting [5]); over 5.12 µM in experiment [2] (setting [6]); over 10 µM in experiment [3]; over 1000 nM in experiment [4].

Consider “LU-65 (large cell lung carcinoma, suspension)”, for which the AUC in experiment [1] came out at 0.966; in experiment [2] (setting [5]), 0.987; in experiment [2] (setting [6]), 0.983; in experiment [3], 0.974; in experiment [4], 0.958. For the same cell line, the IC50 was over 10 µM in experiment [1]; over 5 µM in experiment [2] (setting [5]); over 5.12 µM in experiment [2] (setting [6]); over 10 µM in experiment [3]; over 1000 nM in experiment [4].

In general, IC50 refers to the concentration needed to halve the response being measured.

Source of the values: the supplement of paper PMC4967469.
